Experimental data: the supplement of paper PMC3724861
The list shows a part of the results.

Test system: T1, Caupolican (Caup) homeodomain DNA-binding domain
T1 sequence: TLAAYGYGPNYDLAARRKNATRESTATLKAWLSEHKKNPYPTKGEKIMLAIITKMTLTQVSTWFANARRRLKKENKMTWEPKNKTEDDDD
Assay: PBM E-score (8-mer, recovered from the published 9-mer minima) (E-score (dimensionless, -0.5 to 0.5)); Drosophila protein; higher = stronger relative binding preference, active = 0.31 or more
Procedure, shortened: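 Caup's homeodomain DNA-binding domain (residues 214-303) was produced by in vitro transcription and translation and applied at 100 nM to custom-designed protein binding microarrays. Each value is an enrichment score giving relative binding preference for a short DNA word; higher means stronger. Published 9-mer scores were the minimum of their two constituent 8-mer scores, and the 8-mer values were recovered from those minima. A cutoff of 0.31 marks candidate binding sequences.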

| Sequence | PBM E-score |
| --- | --- |
| AAGGGAAG | ≥ 0.0642 |
| TCAGTGCA | inactive: -0.0104 |
| AAAGGTTC | inactive: -0.0318 |
| GCGCCGGA | inactive: -0.268 |
| CGGCGATC | inactive: -0.153 |
| CCGGCAGA | inactive: -0.25 |
| TGAAGGCA | inactive: -0.0569 |
| CATGCATA | inactive: 0.14 |
| TCGGTGCA | inactive: -0.0471 |
| TAGTGGAA | inactive: -0.102 |
| CTCACATA | inactive: 0.149 |
| CGGCCCCA | inactive: -0.314 |
| ATCGAGCC | inactive: -0.0462 |
| GCTTAACA | inactive: 0.251 |
| ATTTGGAA | inactive: 0.0173 |
| CTAGGATC | inactive: -0.0155 |
| ATAGGGTA | inactive: 0.0384 |
| GAGTCCTA | inactive: -0.0609 |
| CTTGCGAC | inactive: -0.178 |
| GCAGAGCA | inactive: -0.0161 |
| AAGGTCAA | inactive: 0.00315 |
| AACTCCAC | inactive: 0.0187 |
| AGAGACAG | inactive: -0.00849 |
| AGATTAGC | inactive: -0.0125 |
| GTGCAGAA | inactive: -0.0572 |

| Sequence | PBM E-score |
| --- | --- |
| ACGCTTAT | inactive: 0.0137 |
| GACCAGGC | inactive: -0.176 |
| GTTGTCCA | active: ≥ 0.336 |
| GTTCGTAA | inactive: 0.0956 |
| AAATCCAG | inactive: 0.0354 |
| AAGTACTC | inactive: 0.0162 |
| CAATAGTA | inactive: 0.0364 |
| AGAATGAT | inactive: 0.1 |
| CTTTAGTA | inactive: 0.0758 |
| AGCTGTGA | inactive: 0.0157 |
| TCCGCCCA | inactive: -0.142 |
| GGTGGCTA | inactive: -0.133 |
| AAATCCCA | inactive: -0.00704 |
| CCAACCGC | inactive: -0.144 |
| GAATGGAC | inactive: 0.0265 |
| CCGTATTA | inactive: 0.0301 |
| AAATATGC | inactive: 0.00511 |
| TAGGTATA | inactive: 0.0723 |
| TCCCTTAA | inactive: -0.00465 |
| GTTGCAGA | inactive: 0.0159 |
| AATTTAGA | inactive: 0.0312 |
| GATTATTA | inactive: 0.16 |
| TAATACAA | inactive: 0.278 |
| CCGGGTCC | inactive: -0.185 |
| AAGATTAT | inactive: 0.0707 |

| Sequence | PBM E-score |
| --- | --- |
| GACGCATC | inactive: -0.0449 |
| GTCACTTA | inactive: 0.105 |
| TTAATTAA | inactive: 0.128 |
| ATGGGCCG | ≥ -0.14 |
| ACGACTCA | inactive: 0.0184 |
| CAATCGCA | inactive: 0.0691 |
| CGCCCACG | inactive: -0.219 |
| CCGCTGTA | inactive: 0.089 |
| GGGAAGTA | inactive: 0.031 |
| GGTCCTAA | inactive: -0.0162 |
| TCCCCGAA | inactive: -0.216 |
| CATAGGCA | inactive: -0.111 |
| CGCCTAGA | inactive: -0.178 |
| ATGGTATC | inactive: 0.109 |
| GTTATTGA | inactive: 0.154 |
| CAATGGGA | inactive: -0.0502 |
| ACGATTCC | inactive: 0.0592 |
| ATGGTGTC | inactive: 0.142 |
| AGTATCTA | inactive: 0.166 |
| AGTGTGCG | inactive: -0.0759 |
| CCTTAGGC | inactive: -0.129 |
| GGATCTGA | inactive: 0.0275 |
| ACCCTGAC | inactive: -0.0939 |
| ATTCGTCA | inactive: 0.0852 |
| GCCCCAAC | inactive: -0.0515 |

| Sequence | PBM E-score |
| --- | --- |
| AGGTCATC | inactive: -0.0765 |
| AATGTTCC | inactive: 0.2 |
| CCCGTCGG | inactive: -0.289 |
| CAATTGCG | inactive: -0.018 |
| GTTCACTA | inactive: 0.0838 |
| ATATAGTG | inactive: 0.187 |
| ACTCGCAC | inactive: -0.119 |
| ACCGCACG | inactive: -0.0659 |
| CCCCTATC | inactive: -0.117 |
| GAAGAGCC | inactive: -0.179 |
| AGTCCGTA | inactive: 0.0629 |
| GCATCCTA | inactive: -0.0512 |
| CAGGAGAC | inactive: -0.0799 |
| CTTTGCAC | inactive: 0.0568 |
| ACATAGCG | inactive: 0.141 |
| GCCGTTAA | inactive: -0.089 |
| AAGAGGTC | inactive: -0.106 |
| ATCAACTG | inactive: 0.0532 |
| ACGAAGTG | inactive: 0.0473 |
| ATTTGTGG | inactive: 0.112 |
| ACCAGACT | inactive: 0.0865 |
| CCTAAAAA | inactive: -0.0628 |
| TGGCAAAA | inactive: 0.023 |
| CCAGTTAC | inactive: 0.0253 |
| ATCCCAGG | inactive: -0.127 |

| Sequence | PBM E-score |
| --- | --- |
| CTCGTTCA | inactive: 0.151 |
| GCGTTCAA | inactive: -0.0257 |
| TCAAGTAA | inactive: 0.223 |
| CTTAAATC | inactive: 0.0678 |
| ATAAGCCG | inactive: -0.103 |
| CGCCTCCC | inactive: -0.283 |
| GAAGCTCA | inactive: -0.0994 |
| AATTGGGG | inactive: -0.104 |
| AAAACGGG | inactive: -0.0406 |
| AGGCAGCC | inactive: -0.315 |
| ACTCGAGT | inactive: 0.0146 |
| CACCCAGC | inactive: -0.176 |
| AACCCGTT | inactive: 0.00465 |
| GCTCAGAC | inactive: -0.0786 |
| TAGTTGGA | inactive: 0.0238 |
| AGACGGTA | inactive: -0.0931 |
| TCGGCTAA | inactive: -0.0847 |
| AGAATGAA | inactive: 0.0624 |
| AATCCTGC | inactive: 0.0454 |
| TACAGATA | inactive: 0.222 |
| AAAGAGAT | inactive: 0.00948 |
| CCACCGAC | inactive: -0.106 |
| ATATGGGC | inactive: 0.00884 |
| TAGCTGCA | inactive: -0.0492 |
| AAACGATG | inactive: 0.0787 |

| Sequence | PBM E-score |
| --- | --- |
| ACACGGTA | active: 0.327 |
| ACAACGGT | inactive: 0.118 |
| TCAACAAA | inactive: 0.157 |
| GTGCCTGA | inactive: -0.136 |
| AACACATA | active: 0.323 |
| GAAAAGGC | inactive: -0.0658 |
| AACCCGGT | inactive: -0.0602 |
| ATATGCCA | inactive: 0.0058 |
| TACACCGA | inactive: 0.188 |
| CTTGCTTA | inactive: -0.00428 |
| ATCCACCA | ≥ -0.00321 |
| CAAGAGCA | inactive: 0.0574 |
| CCACGCAA | inactive: -0.0519 |
| GAAGAGCA | inactive: -0.0634 |
| ACGCGCAC | inactive: -0.0925 |
| CAAACTTG | inactive: -0.0037 |
| CAATGCTC | inactive: -0.00508 |
| ATTGTAAG | inactive: 0.0993 |
| AATGCCGC | inactive: -0.139 |
| CGGCACCG | inactive: -0.175 |
| GAACAACC | inactive: 0.265 |
| CACGACTC | inactive: 0.0628 |
| TAGCTAGA | inactive: -0.0197 |
| AAGTACGG | inactive: 0.0736 |
| AACCCGGG | inactive: -0.179 |

| Sequence | PBM E-score |
| --- | --- |
| GAGGGTGA | inactive: -0.152 |
| AAGTCCCC | inactive: -0.175 |
| CATAGTAG | inactive: 0.15 |
| CTATGAGC | inactive: -0.0183 |
| CTTATAGC | ≥ 0.0708 |
| CATCCAAC | inactive: 0.123 |
| AGGTACCC | inactive: -0.141 |
| ATATCATA | inactive: 0.238 |
| ATATGCGC | inactive: 0.106 |
| GACGTTGC | inactive: -0.105 |
| ATGAGGCA | inactive: -0.119 |
| GGCCGTGA | inactive: -0.072 |
| ATAGGGGA | inactive: -0.137 |
| GCAGTCGC | inactive: -0.226 |
| AGTATGAA | inactive: 0.131 |
| AGTTTGAG | inactive: -0.0429 |
| AGCCAGTC | inactive: -0.0838 |
| CCGTGGGC | inactive: -0.294 |
| AGAAGCGG | inactive: -0.223 |
| ACTAAGCT | inactive: -0.117 |
| CACCACCG | inactive: -0.148 |
| AGACTGCC | inactive: -0.111 |
| ACTCGGAC | inactive: -0.00105 |
| ATGACGAA | inactive: 0.132 |
| CTACCAGC | inactive: 0.0565 |

| Sequence | PBM E-score |
| --- | --- |
| ACTACAGG | inactive: 0.199 |
| CAGAGGGC | inactive: -0.209 |
| TCGAGAGA | inactive: -0.0866 |
| GCACGACA | inactive: 0.198 |
| GTGATTAA | inactive: 0.15 |
| GATTCTAC | inactive: 0.0914 |
| ACGGAATC | inactive: 0.0546 |
| AAAAGTCG | inactive: -0.0817 |
| GCGGTTCC | inactive: -0.102 |
| AAACGCGT | ≥ 0.0308 |
| AACTCCAT | inactive: -0.0233 |
| CGGCCGCA | inactive: -0.181 |
| AAACCAGT | inactive: 0.0724 |
| CAATCTCA | inactive: 0.102 |
| CGAACTCA | inactive: -0.0882 |
| ATACTCCA | ≥ 0.113 |
| CCCGGTTA | inactive: -0.155 |
| ACCCTGTG | inactive: 0.0385 |
| GCAGCCAC | inactive: -0.22 |
| CGATCGTA | ≥ 0.11 |
| AAGAATGG | inactive: -0.0161 |
| CTGCCCTA | inactive: -0.163 |
| TAGGAGCA | inactive: 0.0236 |
| AATATTTC | inactive: 0.0671 |
| AGTTTGCG | inactive: -0.0264 |

| Sequence | PBM E-score |
| --- | --- |
| CTAAGCCC | inactive: -0.193 |
| GATGTCGA | inactive: 0.217 |
| CGAGGGAC | inactive: -0.152 |
| CTACCTAG | inactive: -0.0794 |
| AAGGTAAT | ≥ 0.125 |
| AACTGGCG | inactive: -0.129 |
| ACAAAATG | inactive: 0.252 |
| GGTAGCGA | inactive: -0.0452 |
| CTCGTTCC | inactive: -0.0488 |
| CTACAAGC | inactive: 0.29 |
| CTAAGGTC | inactive: -0.129 |
| GGACGAGA | inactive: -0.121 |
| CATGGGCG | inactive: -0.0923 |
| TCCTATCA | inactive: 0.0638 |
| ATTCTATA | inactive: 0.148 |
| ATACGCTG | inactive: -0.0697 |
| ATGTCATG | active: 0.353 |
| TATACACA | inactive: 0.289 |
| GCAAGCAC | inactive: -0.0767 |
| AAGAACTC | inactive: 0.00538 |
| GCCTGAGA | inactive: -0.145 |
| CAGTTAGA | inactive: -0.0838 |
| ATTCGTAA | inactive: 0.104 |
